Laboratory results published in the supplement of paper PMC8728848.
This is one part of the list.

Assays:
Assay in all cases: glycan array binding signal (z-score within array); higher = stronger binding
Settings in all cases: glycan notation: IUPAC condensed, linker removed
[1] = molecular target: GalNAc(b1-4)GlcNAc(b1-2)Man
Method in brief: (§1)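 From the Consortium for Functional Glycomics database, 3228 arrays were curated, keeping only those whose protein sequence was available. Binding is given as a within-array Z-score averaged across arrays sharing a protein sequence and across linkers. Negative Z-scores can be read as non-binding.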

[2] = molecular target: GalNAc(b1-4)GlcNAc(b1-2)Man(a1-3)[GalNAc(b1-4)GlcNAc(b1-2)Man(a1-6)]Man(b1-4)GlcNAc(b1-4)GlcNAc
Method in brief: as §1

[3] = molecular target: GalNAc(b1-4)GlcNAc(b1-3)GalNAc(b1-4)GlcNAc
Method in brief: as §1

GalNAc(b1-4)GlcNAc6S = molecular target: GalNAc(b1-4)GlcNAc6S
Method in brief: as §1

GalNAc(b1-6)GalNAc = molecular target: GalNAc(b1-6)GalNAc
Method in brief: as §1

GalNAc3S(b1-4)GlcNAc = molecular target: GalNAc3S(b1-4)GlcNAc
Method in brief: as §1

GalNAc3S(b1-4)GlcNAc3S = molecular target: GalNAc3S(b1-4)GlcNAc3S
Method in brief: as §1

[4] = molecular target: GalNAc3S(b1-4)[Fuc(a1-3)]GlcNAc
Method in brief: as §1

GalNAc4S6S(b1-4)GlcNAc = molecular target: GalNAc4S6S(b1-4)GlcNAc
Method in brief: as §1

GalNAc6S(b1-4)GlcNAc = molecular target: GalNAc6S(b1-4)GlcNAc
Method in brief: as §1

Glc(a1-4)Glc = molecular target: Glc(a1-4)Glc
Method in brief: as §1

[5] = molecular target: Glc(a1-4)Glc(a1-4)Glc(a1-4)Glc
Method in brief: as §1

Glc(a1-6)Glc(a1-6)Glc = molecular target: Glc(a1-6)Glc(a1-6)Glc
Method in brief: as §1

[6] = molecular target: Glc(a1-6)Glc(a1-6)Glc(a1-6)Glc
Method in brief: as §1

Glc(b1-4)Glc = molecular target: Glc(b1-4)Glc
Method in brief: as §1

Glc(b1-6)Glc = molecular target: Glc(b1-6)Glc
Method in brief: as §1

GlcA(b1-3)Gal = molecular target: GlcA(b1-3)Gal
Method in brief: as §1

GlcA(b1-3)GlcNAc = molecular target: GlcA(b1-3)GlcNAc
Method in brief: as §1

GlcA(b1-6)Gal = molecular target: GlcA(b1-6)Gal
Method in brief: as §1

[7] = molecular target: GlcA3S(b1-3)Gal(b1-4)GlcNAc(b1-2)Man
Method in brief: as §1

[8] = molecular target: GlcA3S(b1-3)Gal(b1-4)GlcNAc(b1-3)Gal(b1-4)Glc
Method in brief: as §1

[9] = molecular target: GlcNAc(a1-3)Gal(b1-4)GlcNAc
Method in brief: as §1

[10] = molecular target: GlcNAc(a1-4)Gal(b1-3)GlcNAc
Method in brief: as §1

[11] = molecular target: GlcNAc(a1-4)Gal(b1-4)GalNAc
Method in brief: as §1

[12] = molecular target: GlcNAc(a1-4)Gal(b1-4)GlcNAc
Method in brief: as §1

[13] = molecular target: GlcNAc(a1-4)Gal(b1-4)GlcNAc(b1-3)Gal(b1-4)Glc
Method in brief: as §1

[14] = molecular target: GlcNAc(a1-4)Gal(b1-4)GlcNAc(b1-3)Gal(b1-4)GlcNAc
Method in brief: as §1

[15] = molecular target: GlcNAc(a1-4)Gal(b1-4)GlcNAc(b1-3)Gal(b1-4)GlcNAc(b1-3)Gal(b1-4)GlcNAc
Method in brief: as §1

[16] = molecular target: GlcNAc(a1-4)Gal(b1-4)GlcNAc(b1-3)Gal(b1-4)[Fuc(a1-3)]GlcNAc(b1-3)Gal(b1-4)[Fuc(a1-3)]GlcNAc
Method in brief: as §1

[17] = molecular target: GlcNAc(a1-6)Gal(b1-4)GlcNAc
Method in brief: as §1

[18] = molecular target: GlcNAc(b1-2)Gal(b1-3)GalNAc
Method in brief: as §1

[19] = molecular target: GlcNAc(b1-2)Man(a1-3)[GlcNAc(b1-2)Man(a1-6)]Man(b1-4)GlcNAc(b1-4)GlcNAc
Method in brief: as §1

[20] = molecular target: GlcNAc(b1-2)Man(a1-3)[GlcNAc(b1-2)Man(a1-6)]Man(b1-4)GlcNAc(b1-4)[Fuc(a1-6)]GlcNAc
Method in brief: as §1

[21] = molecular target: GlcNAc(b1-2)Man(a1-3)[GlcNAc(b1-4)][GlcNAc(b1-2)Man(a1-6)]Man(b1-4)GlcNAc(b1-4)GlcNAc
Method in brief: as §1

[22] = molecular target: GlcNAc(b1-2)Man(a1-3)[GlcNAc(b1-4)][GlcNAc(b1-2)Man(a1-6)]Man(b1-4)GlcNAc(b1-4)[Fuc(a1-6)]GlcNAc
Method in brief: as §1

[23] = molecular target: GlcNAc(b1-2)[GlcNAc(b1-4)]Man(a1-3)[GlcNAc(b1-2)Man(a1-6)]Man(b1-4)GlcNAc(b1-4)GlcNAc
Method in brief: as §1

[24] = molecular target: GlcNAc(b1-2)[GlcNAc(b1-4)]Man(a1-3)[GlcNAc(b1-4)][GlcNAc(b1-2)Man(a1-6)]Man(b1-4)GlcNAc(b1-4)GlcNAc
Method in brief: as §1

[25] = molecular target: GlcNAc(b1-2)[GlcNAc(b1-4)]Man(a1-3)[GlcNAc(b1-4)][GlcNAc(b1-2)[GlcNAc(b1-6)]Man(a1-6)]Man(b1-4)GlcNAc(b1-4)GlcNAc
Method in brief: as §1

[26] = molecular target: GlcNAc(b1-2)[GlcNAc(b1-4)]Man(a1-3)[GlcNAc(b1-4)][GlcNAc(b1-2)[GlcNAc(b1-6)]Man(a1-6)]Man(b1-4)GlcNAc(b1-4)[Fuc(a1-6)]GlcNAc
Method in brief: as §1

[27] = molecular target: GlcNAc(b1-2)[GlcNAc(b1-6)]Man(a1-6)[GlcNAc(b1-2)Man(a1-3)]Man(b1-4)GlcNAc(b1-4)GlcNAc
Method in brief: as §1

[28] = molecular target: GlcNAc(b1-2)[GlcNAc(b1-6)]Man(a1-6)[GlcNAc(b1-2)Man(a1-3)]Man(b1-4)GlcNAc(b1-4)[Fuc(a1-6)]GlcNAc
Method in brief: as §1

[29] = molecular target: GlcNAc(b1-2)[GlcNAc(b1-6)]Man(a1-6)[GlcNAc(b1-4)][GlcNAc(b1-2)Man(a1-3)]Man(b1-4)GlcNAc(b1-4)GlcNAc
Method in brief: as §1

GlcNAc(b1-3)Fuc = molecular target: GlcNAc(b1-3)Fuc
Method in brief: as §1

GlcNAc(b1-3)Gal = molecular target: GlcNAc(b1-3)Gal
Method in brief: as §1

[30] = molecular target: GlcNAc(b1-3)Gal(b1-3)GalNAc
Method in brief: as §1

B1: LecB LY19 (Pseudomonas aeruginosa) (protein)
chain: MATQGVFTLPANTQFGVTAFANSAGTQTVNVQVNNETVATFTGQSTNNGIIGSKVLNSGGGGKVQILVSVNGRSSDLVSAQVILANELNFALVGSEDSTDNDYNDAVVVINWPLG
glycan array binding signal (z-score) [1]: -0.551 | glycan array binding signal (z-score) [2]: -0.53 | glycan array binding signal (z-score) [3]: -0.259 | glycan array binding signal (z-score) (GalNAc(b1-4)GlcNAc6S): -0.556 | glycan array binding signal (z-score) (GalNAc(b1-6)GalNAc): -0.559 | glycan array binding signal (z-score) (GalNAc3S(b1-4)GlcNAc): -0.557 | glycan array binding signal (z-score) (GalNAc3S(b1-4)GlcNAc3S): -0.556 | glycan array binding signal (z-score) [4]: 1.1 | glycan array binding signal (z-score) (GalNAc4S6S(b1-4)GlcNAc): -0.557 | glycan array binding signal (z-score) (GalNAc6S(b1-4)GlcNAc): -0.557 | glycan array binding signal (z-score) (Glc(a1-4)Glc): -0.541 | glycan array binding signal (z-score) [5]: -0.525 | glycan array binding signal (z-score) (Glc(a1-6)Glc(a1-6)Glc): -0.491 | glycan array binding signal (z-score) [6]: -0.506 | glycan array binding signal (z-score) (Glc(b1-4)Glc): -0.503 | glycan array binding signal (z-score) (Glc(b1-6)Glc): -0.502 | glycan array binding signal (z-score) (GlcA(b1-3)Gal): -0.542 | glycan array binding signal (z-score) (GlcA(b1-3)GlcNAc): -0.508 | glycan array binding signal (z-score) (GlcA(b1-6)Gal): -0.525 | glycan array binding signal (z-score) [7]: -0.548 | glycan array binding signal (z-score) [8]: -0.549 | glycan array binding signal (z-score) [9]: 0.745 | glycan array binding signal (z-score) [10]: -0.555 | glycan array binding signal (z-score) [11]: -0.475 | glycan array binding signal (z-score) [12]: -0.543 | glycan array binding signal (z-score) [13]: -0.549 | glycan array binding signal (z-score) [14]: -0.524 | glycan array binding signal (z-score) [15]: -0.548 | glycan array binding signal (z-score) [16]: 1.73 | glycan array binding signal (z-score) [17]: -0.532 | glycan array binding signal (z-score) [18]: -0.544 | glycan array binding signal (z-score) [19]: 0.742 | glycan array binding signal (z-score) [20]: -0.064 | glycan array binding signal (z-score) [21]: -0.547 | glycan array binding signal (z-score) [22]: 0.369 | glycan array binding signal (z-score) [23]: -0.398 | glycan array binding signal (z-score) [24]: -0.556 | glycan array binding signal (z-score) [25]: -0.554 | glycan array binding signal (z-score) [26]: 0.427 | glycan array binding signal (z-score) [27]: -0.465 | glycan array binding signal (z-score) [28]: 1.66 | glycan array binding signal (z-score) [29]: -0.546 | glycan array binding signal (z-score) (GlcNAc(b1-3)Fuc): 0.405 | glycan array binding signal (z-score) (GlcNAc(b1-3)Gal): -0.54 | glycan array binding signal (z-score) [30]: -0.542
